Measurements from the supplement of paper PMC3334620.
The full ranking holds about 33,000 sequences; the median of “E-score (-0.5 to 0.5)” is about -0.035, and the highest 2% start at about 0.35. The list shows a part of the results.

Target: T1, Pdr3 (UniProt P33200)
T1 sequence: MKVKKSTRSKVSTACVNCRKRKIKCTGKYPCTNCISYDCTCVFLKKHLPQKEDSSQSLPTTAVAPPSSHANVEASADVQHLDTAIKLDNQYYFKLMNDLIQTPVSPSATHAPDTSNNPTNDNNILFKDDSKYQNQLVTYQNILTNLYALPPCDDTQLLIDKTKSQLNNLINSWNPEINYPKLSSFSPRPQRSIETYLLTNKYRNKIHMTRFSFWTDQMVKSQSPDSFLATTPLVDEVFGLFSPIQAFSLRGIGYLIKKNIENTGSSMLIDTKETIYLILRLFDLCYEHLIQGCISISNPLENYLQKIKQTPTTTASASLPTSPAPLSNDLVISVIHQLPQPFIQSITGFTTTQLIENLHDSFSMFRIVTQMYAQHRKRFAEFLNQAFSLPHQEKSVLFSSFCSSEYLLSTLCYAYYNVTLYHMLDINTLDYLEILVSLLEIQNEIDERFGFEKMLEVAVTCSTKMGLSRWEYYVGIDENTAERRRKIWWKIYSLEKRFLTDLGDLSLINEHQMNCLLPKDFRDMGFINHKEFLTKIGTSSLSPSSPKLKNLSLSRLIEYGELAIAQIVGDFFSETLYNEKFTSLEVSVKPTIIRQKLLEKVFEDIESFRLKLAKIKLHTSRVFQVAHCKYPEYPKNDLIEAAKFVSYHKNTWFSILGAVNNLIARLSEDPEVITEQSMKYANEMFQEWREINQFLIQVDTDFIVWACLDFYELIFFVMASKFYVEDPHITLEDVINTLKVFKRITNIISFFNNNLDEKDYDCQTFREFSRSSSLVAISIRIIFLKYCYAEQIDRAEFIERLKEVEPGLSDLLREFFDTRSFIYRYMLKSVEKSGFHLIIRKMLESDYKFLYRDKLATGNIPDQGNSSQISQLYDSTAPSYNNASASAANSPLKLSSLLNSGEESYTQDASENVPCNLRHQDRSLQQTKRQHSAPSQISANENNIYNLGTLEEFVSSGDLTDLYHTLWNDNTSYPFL
Experiment: PBM E-score (8-mer binding enrichment) (E-score (-0.5 to 0.5)); higher = stronger / more preferred TF binding; most listed sequences are background and not binding sites
Conditions: protein concentration: 200 nM; construct: GST-full length
Summary of the method: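 The E-score, a modified Wilcoxon-Mann-Whitney statistic, was computed by the Universal PBM Analysis Suite for every ungapped eight-base word pooled with its reverse complement. Scans behind it were normalised with masliner after bound GST-tagged yeast transcription factors were detected with fluorescent anti-GST. The proteins, at about 100-200 nM, had been applied to universal all-10-mer Agilent arrays made double-stranded by primer extension.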

Going from CTGTCCAA to CTTACTTC, the “PBM E-score” value rises from -0.128 to 0.082.

Compared with CGAAAGTA, CACCTGGA is lower in “PBM E-score” value: -0.14 for the first, -0.147 for the second.

First: TCTTGTAA
Second: CTCGGTTA
The “PBM E-score” value of the first is lower: 0.0172 for the first, 0.0885 for the second.

Compared with ACGGAAGG, AACATAAC is lower in “PBM E-score” value: 0.397 for the first, 0.0669 for the second.

Compared with CCGATTAG, ATCCTGGG is lower in “PBM E-score” value: 0.157 for the first, -0.104 for the second.

First: CCATTTAG
Second: ACGCTCAT
The “PBM E-score” value of the first is lower: -0.0489 for the first, -0.0439 for the second.

Compared with CGCTACGC, AAAGGGAC is lower in “PBM E-score” value: -0.119 for the first, -0.174 for the second.

Compared with ATTTCGGG, GGTCTGCA is lower in “PBM E-score” value: 0.139 for the first, 0.0109 for the second.

Compared with CCTAGTGA, ATTCAGAC is lower in “PBM E-score” value: -0.0249 for the first, -0.166 for the second.

Going from CTAAAGGC to CGTTTTTA, the “PBM E-score” value rises from -0.185 to 0.0102.

First: GGGCATAC
Second: CTCTGTCA
The “PBM E-score” value of the first is higher: -0.0177 for the first, -0.272 for the second.

First: ACTCGACA
Second: CTTTATAA
The “PBM E-score” value of the first is higher: 0.0576 for the first, -0.237 for the second.

First: ACTGGTAT
Second: ACCGGGTC
The “PBM E-score” value of the first is lower: -0.0793 for the first, 0.184 for the second.

Going from CTACGATC to CGGCGTAG, the “PBM E-score” value rises from -0.166 to -0.0134.

Going from ACATTTAC to ACAATTGC, the “PBM E-score” value falls from -0.0786 to -0.0946.

Going from TTCGGCAA to CAGATGCG, the “PBM E-score” value falls from -0.0284 to -0.126.

Compared with GTTTCATA, CGCAACGA is higher in “PBM E-score” value: -0.00289 for the first, 0.0402 for the second.

Compared with ATTTCAGA, AACTTCGG is higher in “PBM E-score” value: -0.0196 for the first, 0.195 for the second.

Going from CGTTCCAA to TAAGAAAA, the “PBM E-score” value rises from -0.0612 to 0.0179.

Compared with GTTGAACA, GGTCCCCA is higher in “PBM E-score” value: -0.189 for the first, -0.0977 for the second.

First: AGCCCTCA
Second: GCCCGTAC
The “PBM E-score” value of the first is lower: -0.248 for the first, -0.0513 for the second.

Going from CCACAAAC to CTCAAAAA, the “PBM E-score” value falls from 0.134 to -0.0515.

Compared with AAACTAGG, TACGTAGA is lower in “PBM E-score” value: -0.129 for the first, -0.178 for the second.

Going from ACAGCTCA to CATTCCGC, the “PBM E-score” value rises from -0.137 to 0.421.

Going from ATAGACAG to GGATATAC, the “PBM E-score” value rises from -0.161 to 0.175.

First: CAGCTCAA
Second: ATTTGGCC
The “PBM E-score” value of the first is lower: 0.0732 for the first, 0.14 for the second.

First: AACGCCTT
Second: ATCATAAT
The “PBM E-score” value of the first is higher: 0.0867 for the first, 0.0348 for the second.

First: CGGCGTTA
Second: CTCGGTTC
The “PBM E-score” value of the first is higher: 0.184 for the first, -0.0143 for the second.

Compared with AAGTATTC, AGAGTGCT is lower in “PBM E-score” value: 0.00329 for the first, -0.14 for the second.

Compared with CGGCGTGA, CCTACCAA is lower in “PBM E-score” value: 0.248 for the first, -0.0566 for the second.

Going from AGGGTGCA to CCCTGCGA, the “PBM E-score” value falls from -0.0818 to -0.184.

First: CGTCGCAA
Second: CGTCGGCA
The “PBM E-score” value of the first is lower: 0.0832 for the first, 0.244 for the second.

Going from AAATCACC to GCACAGGA, the “PBM E-score” value falls from 0.172 to 0.0864.

First: GTCAAAGA
Second: AATCCGCT
The “PBM E-score” value of the first is lower: -0.212 for the first, 0.16 for the second.

First: AACTTGAA
Second: CTTTCTGA
The “PBM E-score” value of the first is higher: -0.0145 for the first, -0.258 for the second.

Going from AGTTATGG to CCCTTCAG, the “PBM E-score” value rises from -0.187 to -0.173.

Going from CACCGATA to ATCTCAGA, the “PBM E-score” value falls from 0.00215 to -0.0661.

Compared with CCGGTGCA, AGCTGTAA is lower in “PBM E-score” value: 0.227 for the first, -0.292 for the second.

Compared with CCGGCAGG, CCTTTGAG is lower in “PBM E-score” value: 0.231 for the first, -0.179 for the second.

Going from CTCATATC to TATGGTCA, the “PBM E-score” value falls from 0.016 to -0.187.

Compared with ATGATGCC, ATTCACGC is higher in “PBM E-score” value: -0.0254 for the first, 0.00639 for the second.

First: GACTACGA
Second: GAAGCCCA
The “PBM E-score” value of the first is lower: -0.165 for the first, -0.141 for the second.

First: GATGTACC
Second: AACCGGGC
The “PBM E-score” value of the first is lower: -0.191 for the first, 0.0811 for the second.
